Measured values: the RNAGym collection of RNA variant scans (doi:10.1101/gad.245936.114)
Variants at the background level are over-represented here.

B1: tRNA (parent)
chain: CUCUCGGUAGCCAAGUUGGUUUAAGGCGCAAGACUUUAAUUUAUCACUACGAAAUCUUGAGAUCGGGCGUUCGACUCGCCCCCGGGAGAUUUUUUCCUCGAGCAA

Variants of: B1
Assay: nonsense suppression (GFP-seq) (ratio to wild type); higher = more function; SUP4oc tRNA, yeast GFP reporter sort-seq
In short: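 Sorted GFP/RFP bins of yeast were each Illumina-sequenced with a phred ≥30 cutoff; the cells held a genome-integrated ochre-suppressor tRNA variant from a library with ~3% random mutations, a galactose-driven GFP ochre reporter, and RFP. Culture was in raffinose/galactose medium containing 80 mg/L adenine. Nonsense suppression, termed GFPSEQ, is the median GFP/RFP of the bins weighted by each variant's estimated cell share per bin, relative to the unmutated parent tRNA, for variants reaching ≥100 reads and ≥30 cells.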

Row | Variant | nonsense suppression
1 | C11U C72G | ≤ 0.026
2 | C11U G19U G26C C34A G65A | ≤ 0.026
3 | C11G C56G G85A | ≤ 0.026
4 | C11G C29U G78A | ≤ 0.026
5 | C11G U22C | ≤ 0.026
6 | C11U A60C A87U | ≤ 0.026
7 | C11U A13U A24U A62G | ≤ 0.026
8 | C11G G26A G85U | ≤ 0.026
9 | C11U A14C G26C A31G | ≤ 0.026
10 | C11G U57G A60U C83U | ≤ 0.026
11 | C11G G28C A30G | ≤ 0.026
12 | C11U G66A | ≤ 0.026
13 | C11U C64A | ≤ 0.026
14 | C11G G28A C34U | ≤ 0.026
15 | C11U G18C G86U | ≤ 0.026
16 | C11G G32C U57C A60U G61C | ≤ 0.026
17 | C11G C12G U70C U71G A74U | ≤ 0.026
18 | C11U A30C U57C C79G A89G | ≤ 0.026
19 | C11U C64G C72U C79A G88A | ≤ 0.026
20 | C11G C27U A60C G69A U70G | ≤ 0.026
21 | C11G U63A G65C | ≤ 0.026
22 | C11G C12U | ≤ 0.026
23 | C11G G73A G84C | ≤ 0.026
24 | C11G G73A G84U | ≤ 0.026

Row | Variant | nonsense suppression
25 | C11U C68G | ≤ 0.026
26 | C11U G59C | ≤ 0.026
27 | C11U A54U G59A G67U A74C | ≤ 0.026
28 | C11U A14C U16C | ≤ 0.026
29 | C11U U16A C77U | ≤ 0.026
30 | C11G G19C U20A U21A A23G C29U G88A | ≤ 0.026
31 | C11G G73U C80G | ≤ 0.026
32 | C11U A23U | ≤ 0.026
33 | C11G U21A C27G U71A | ≤ 0.026
34 | C11U A23G U55A | ≤ 0.026
35 | C11U C12U G15U G18A U55C G65C | ≤ 0.026
36 | C11U G61U A89G | ≤ 0.026
37 | C11U G61A G69U | ≤ 0.026
38 | C11U C77A A87U | ≤ 0.026
39 | C11U U16A A54U | ≤ 0.026
40 | C11U G18U U58G | ≤ 0.026
41 | C11U A24C A62C G69U | ≤ 0.026
42 | C11G G19A G78A | ≤ 0.026
43 | C11U G15C G61U | ≤ 0.026
44 | C11U C27U | ≤ 0.026
45 | C11G G59C A74U C80G | ≤ 0.026
46 | C11U G26U U71G | ≤ 0.026
47 | C11U G25C C80G | ≤ 0.026
48 | C11U G19A G25A C29U G59A | ≤ 0.026

Row | Variant | nonsense suppression
49 | C11G U71A | ≤ 0.026
50 | C11U G18U A62U | ≤ 0.026
51 | C11G U20A U22C C34G U70C | ≤ 0.026
52 | C11U A24U C34A C83U | ≤ 0.026
53 | C11G C12U A13C U63C A74G | ≤ 0.026
54 | C11G G18U A23C A54C | ≤ 0.026
55 | C11U G67C | ≤ 0.026
56 | C11G C29U A60C G88U | ≤ 0.026
57 | C11U A30C G61A G69A G88C | ≤ 0.026
58 | C11U A13G A60C | ≤ 0.026
59 | C11U A24U C77G | ≤ 0.026
60 | C11G G19U A23U | ≤ 0.026
61 | C11U G28A U55A U58A U70A | ≤ 0.026
62 | C11U G61C | 0.0829
63 | C11G G19U U20A | ≤ 0.026
64 | C11U G25C A74G | ≤ 0.026
65 | C11G G32U G73U | ≤ 0.026
66 | C11U C83A G86C | ≤ 0.026
67 | C11U G19U C64A | ≤ 0.026
68 | C11G C29G C72U | ≤ 0.026
69 | C11G G15U G78C | ≤ 0.026
70 | C11U U16C | ≤ 0.026
71 | C11U A24C | ≤ 0.026
72 | C11U A13C G25U C34G C75G A87G | ≤ 0.026

Row | Variant | nonsense suppression
73 | C11G U20G A33U | ≤ 0.026
74 | C11G G61C G69U G73C U76G | ≤ 0.026
75 | C11G G61A G67C C68U G88U | ≤ 0.026
76 | C11G G66C | ≤ 0.026
77 | C11G G66A | ≤ 0.026
78 | C11U U17C A24U C27G U76A | ≤ 0.026
79 | C11G G32U U76G | ≤ 0.026
80 | C11G C34U | ≤ 0.026
81 | C11U G59C G85C | ≤ 0.026
82 | C11G U16A C29U U57A C68U | ≤ 0.026
83 | C11U U16G G28U G69C | ≤ 0.026
84 | C11U A13C C29A A54G C75A | ≤ 0.026
85 | C11G U16G G66A | ≤ 0.026
86 | C11G C12U G25U | ≤ 0.026
87 | C11U G84A | ≤ 0.026
88 | C11U G84C | ≤ 0.026
89 | C11G U35C A74U C82A | ≤ 0.026
90 | C11G C27A | ≤ 0.026
91 | C11U G26A C29U A62C | ≤ 0.026
92 | C11G C80G | ≤ 0.026
93 | C11G U71G C83U A87G G88A | ≤ 0.026
94 | C11U A31C A33G G73C | ≤ 0.026
95 | C11G U17G | ≤ 0.026
96 | C11U G25A U35C U76G | ≤ 0.026

Row | Variant | nonsense suppression
97 | C11U A24G G26C U71A | ≤ 0.026
98 | C11G U21C U70A U71C | ≤ 0.026
99 | C11U C56A G67A A74G | ≤ 0.026
100 | C11U G85U | ≤ 0.026
101 | C11U A31C U63C C82A G88A | ≤ 0.026
102 | C11U C27U C29A A31U | ≤ 0.026
103 | C11U G18C U22G U57A | ≤ 0.026
104 | C11G U35G | ≤ 0.026
105 | C11U A30G G69A | ≤ 0.026
106 | C11G G61C G67C G78C | ≤ 0.026
107 | C11U | ≤ 0.026
108 | C11G C12G A60U | ≤ 0.026
109 | C11U G26A A31U G61U | ≤ 0.026
110 | C11U G19A G28U U57C | ≤ 0.026
111 | C11G G73C | ≤ 0.026
112 | C11G C12A U35G U55C U76A G84U | ≤ 0.026
113 | C11G G26C A30C | ≤ 0.026
114 | C11G G19C C27G A60C G73U | ≤ 0.026
115 | C11U U16C A89C | ≤ 0.026
116 | C11U G69A | ≤ 0.026
117 | C11G U17C U21C U63C | ≤ 0.026
118 | C11U G18U G25A | ≤ 0.026
119 | C11U G69U U71C U76C | ≤ 0.026
120 | C11U G15U A87C | ≤ 0.026

Row | Variant | nonsense suppression
121 | C11G U22C A54C G67U C83U | ≤ 0.026
122 | C11G U55C | ≤ 0.026
123 | C11U U17A | ≤ 0.026
124 | C11G U57G A62C | ≤ 0.026
125 | C11U C12G A89G | ≤ 0.026
126 | C11U G32U U55A U57G | ≤ 0.026
127 | C11G C34U U63G G67A A87C | ≤ 0.026
128 | C11G U71A G86C | ≤ 0.026
129 | C11G U20G A24U A30G | ≤ 0.026
130 | C11U A30C U58G A89U | ≤ 0.026
131 | C11G C79G | ≤ 0.026
132 | C11U U17A C27U A31C G66U | ≤ 0.026
133 | C11G G25C | ≤ 0.026
134 | C11U A14U C68G | ≤ 0.026
135 | C11U C82G | ≤ 0.026
136 | C11G G61A U70A G84A | ≤ 0.026
137 | C11U A14G G25A C75A U76A | ≤ 0.026
138 | C11G C72G | ≤ 0.026
139 | C11G U58A G67C C81A | ≤ 0.026
140 | C11G G66A G69C | 0.0424
141 | C11G U20G | ≤ 0.026
142 | C11G U20C | ≤ 0.026
143 | C11G G19U | ≤ 0.026
144 | C11G G26A A33U U63A G66C G67C C80U | ≤ 0.026

Row | Variant | nonsense suppression
145 | C11U G85U A87C | ≤ 0.026
146 | C11U A31C | ≤ 0.026
147 | C11U A24C A30U G78A | ≤ 0.026
148 | C11U A30G A31U U35G G67C U76C | ≤ 0.026
149 | C11U G32A G84U | ≤ 0.026
150 | C11G G28A G66A G88U | ≤ 0.026
151 | C11U A13G G69C G73A | ≤ 0.026
152 | C11G G18A | ≤ 0.026
153 | C11G G78U G88C | ≤ 0.026
154 | C11U C75A | 0.168
155 | C11G G65C C82U | ≤ 0.026
156 | C11G G67A G69U | ≤ 0.026
157 | C11G G67U | ≤ 0.026
158 | C11G G32C | ≤ 0.026
159 | C11U U16A U63C U70G C72G U76C | ≤ 0.026
160 | C11G C77G | ≤ 0.026
161 | C11U C12U | ≤ 0.026
162 | C11U C12A | ≤ 0.026
163 | C11U A13C U70A C75U | ≤ 0.026
164 | C11U A33U U57A G66A C77G | ≤ 0.026
165 | C11G G15A G86C | ≤ 0.026
166 | C11U A24C A54G | ≤ 0.026
167 | C11G G69C U71G C80A | ≤ 0.026
